Measurements reported in PubChem BioAssay (NCATS).
Inconclusive results, whose numbers are uncertain, are shown with a selection of clear calls. For some assays here: A potency beside an inconclusive call is a rough fit, not a confirmed value. Active and inactive are the calls of the source. Unless noted, calls follow the shape of the dose curve; as a rule, active = well fitted curve in the direction sought with a large enough effect; inconclusive = small, poorly fitted or top-dose-only effect, or another doubt; inactive = no such curve, though single readings can be large; an effect the other way counts as inactive or inconclusive.

Assays:
[1] = qHTS Assay for Identification of Small Molecule Antagonists for NFkB Signaling Pathway (AID 895; active = well fitted inhibition curve with a large enough effect in the signal ratio, with a control signal flat, not every such curve was filed as active; inconclusive = small, poorly fitted or top-dose-only effect, or effect the other way, or a change in a side signal; the % refers to the signal ratio; also: potency is read from the fitted curve at half-maximal effect); details: NFkB beta-lactamase reporter cells, FRET ratio 460/530; series mostly up to 38.3 µM
Method in brief: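 NFkB-bla ME-180 cervical carcinoma cells with beta-lactamase reporter under NFkB response element; compounds added, then TNF alpha at 10 pM final (EC50), 5 h at 37 C. LiveBLAzer substrate 2 h, room temperature; emission 460/530 nm at 405 nm excitation.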

[2] = target: Muscarinic acetylcholine receptor M1 (Rattus norvegicus) (UniProt P08482); experiment: qHTS Assay for Antagonists of Acetylcholine Muscarinic M1 Receptor: Measurement of IP-One Response (AID 944); also: potency is read from the fitted curve at half-maximal effect; nearly all actives have a fitted effect of over 75% in size
[3] = target: Pyruvate kinase (Leishmania mexicana) (UniProt Q27686); experiment: qHTS Validation Assay for Activators of Leishmania Mexicana Pyruvate Kinase (AID 959)
Method in brief: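 Read-out: luminescence from PKLight stop/detection reagent, data normalized to DMSO. Reaction: 0.2 nM E451W LmPYK, 0.5 mM PEP, 0.1 mM ADP, pH 7.2, 1 h room temperature.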

[4] = target: Endonuclease 4 (Escherichia coli (strain K12)) (UniProt P0A6C1); experiment: Counterscreen for APE1 Inhibitors: qHTS Validation Assay for Inhibitors of Endonuclease IV (AID 1708)
Method in brief: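 2 nM enzyme was preincubated with compounds for 15 min at room temperature in 50 mM Tris-HCl pH 7.5, 50 mM NaCl, 2 mM MgCl2, 1 mM DTT, 0.01% Tween-20. 50 nM THF-abasic TAMRA/BHQ-2 duplex substrate started the reaction.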

[5] = qHTS for differential inhibitors of proliferation of Plasmodium falciparum line Dd2 (AID 1882); details: Potency: Plasmodium falciparum Dd2 proliferation inhibition; also: potency is read from the fitted curve at half-maximal effect; nearly all actives have a fitted effect of over 65% in size
Method in brief: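 SYBR Green I DNA fluorescence read-out, ex 485/em 535 nm. Signals were normalized to 0.29 uM artemisinin and DMSO wells, then corrected using vehicle-only plates flanking each stack. Parasite growth ran 72 h in erythrocytes before lysis.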

[6] = qHTS Assay for Modulators of Human Peripheral Myelin Protein 22 (PMP22) Expression/Activity (AID 1967; active = well fitted curve in the direction sought with a large enough effect in the signal ratio; inconclusive = small, poorly fitted or top-dose-only effect, or effect the other way, or a change in a side signal; inactive = no such curve, though single readings can be large or run the other way; the % refers to the signal ratio; also: potency is read from the fitted curve at half-maximal effect); details: Cell-based PMP22 reporter, dual-color luciferase ratio, mouse Pmp22 promoter in mouse Schwann cells; series mostly up to 115 µM
Method in brief: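 Luminescence ratio of Pmp22 promoter-driven green luciferase to EF-alpha-driven red luciferase, in engineered mouse MSC80 Schwann cells, served as read-out. Compounds were incubated 24h; untreated cells defined 0% Activity; curves were classified by r2, magnitude and activity.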

[7] = target: Ferritin light chain (Equus caballus) (UniProt P02791); experiment: qHTS Validation Assay for Identification of Novel General Anesthetics (AID 2323); also: potency is read from the fitted curve at half-maximal effect
Method in brief: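 Fluorescence at 535 nm (excitation 380 nm) reported loss of 1-AMA binding to horse-spleen apoferritin (10 uM) in PBS with 50% saturated 1-aminoanthracene, after 10 min room-temperature incubation with compound; values from Hill fits of normalized response.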

[8] = target: RecQ-like DNA helicase BLM (Homo sapiens) (UniProt P54132); experiment: qHTS Validation Assay for Inhibitors of Bloom's syndrome helicase (BLM) (AID 2364); also: potency is read from the fitted curve at half-maximal effect
Method in brief: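 BLM 50 nM in 25 mM Tris-HCl pH 8.0, 5 mM NaCl, 2 mM MgCl2, 1 mM DTT, 0.01% Tween-20, 2.5 ug/ml poly(dI-dC); 15 min cpd preinc, RT. Start: 200 nM forked DNA + 2 mM ATP (final). TAMRA read, 2 reads 2 h apart.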

[9] = target: DNA polymerase III PolC-type (Bacillus subtilis (strain 168)) (UniProt P13267); experiment: qHTS Validation Assay for the Inhibitors of DNA Replication in Gram-Positive Bacteria (AID 485295); also: potency is read from the fitted curve at half-maximal effect
Method in brief: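 First, compound is mixed with the reconstituted replication complex and held at room temperature. Next, circular single-stranded M13Gori with nucleotides starts synthesis. Finally, PicoGreen in EDTA halts the reaction and stains double-stranded product for fluorescence reading.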

[10] = target: ATP-dependent 6-phosphofructokinase (Trypanosoma brucei brucei) (UniProt O15648); experiment: qHTS Validation Assay to Find Inhibitors of T. brucei phosphofructokinase (AID 485368); also: potency is read from the fitted curve at half-maximal effect
Method in brief: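 Compounds (up to 57 uM, titration series) were pinned into substrate buffer, then 1.25 nM PFK added; after 45 min at room temperature, ADP product was quantified by ADP-Glo luminescence and concentration-response curves fitted.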

[11] = target: Thioredoxin reductase 1, cytoplasmic (Rattus norvegicus) (UniProt O89049); experiment: qHTS Assay for Inhibitors of Mammalian Selenoprotein Thioredoxin Reductase 1 (TrxR1) (AID 488773); details: Potency: inhibition; also: potency is read from the fitted curve at half-maximal effect; nearly all actives have a fitted effect of over 40% in size
Method in brief: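 Steps: enzyme (90 nM) plus NADPH (400 uM final), 5 min at ~22 deg C; compound added, 15 min; selenite (400 uM final) added; fluorescence followed for 8 min. Concentration-response curves derived from the normalized delta values.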

[12] = target: D(1A) dopamine receptor (Homo sapiens) (UniProt P21728); experiment: HTS Assay for Allosteric Agonists of the Human D1 Dopamine Receptor: Primary Screen for Potentiators (AID 488982); also: potency is read from the fitted curve at half-maximal effect
Method in brief: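 Tetracycline-induced HEK293 T-REx cells force-coupled to calcium signalling were incubated overnight at 30 C and dye-loaded at room temperature. Calcium flux over 180 s after compound addition flagged agonists; a further 180 s read after EC20 dopamine flagged potentiators.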

[13] = target: ATPase family AAA domain-containing protein 5 (Homo sapiens) (UniProt Q96QE3); experiment: Validation screen for small molecules that inhibit ELG1-dependent DNA repair in human embryonic kidney (HEK293T) cells expressing luciferase-tagged ELG1 (AID 493107); details: HEK293T ELG1-luciferase level, luminescence, 5-fluorouridine co-treatment, 16 h; series mostly up to 46.1 µM; also: potency is read from the fitted curve at half-maximal effect; nearly all actives have a fitted effect of over 70% in size
Method in brief: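 HEK293T cells expressing luciferase-tagged ELG1 were co-treated with 5-fluorouridine and compound or DMSO for 16 hr at 37 °C, 5% CO2. Luciferase activity was then read with ONE-Glo after 30 min at room temperature; suppressed signal indicates blocked ELG1 function.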

[14] = Validation screen for small molecules that induce DNA re-replication in SW480 colon adenocarcinoma cells (AID 504364); also: potency is read from the fitted curve at half-maximal effect
Method in brief: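 SW480 cells seeded at 250 per well were exposed to compound or DMSO for 48 hr at 37 C, 5% CO2, then stained with Hoechst for 40 min. DNA content per nucleus was imaged (405 nm ex, 500-530 nm em).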

[15] = target: Peptidyl-prolyl cis-trans isomerase NIMA-interacting 1 (Homo sapiens) (UniProt Q13526); experiment: qHTS Validation Assay to Find Inhibitors of Pin1 (AID 504536; active = well fitted inhibition curve with a large enough effect in the polarisation, with a control signal flat, not every such curve was filed as active; inconclusive = small, poorly fitted or top-dose-only effect, or effect the other way; the % refers to the polarisation; also: potency is read from the fitted curve at half-maximal effect)
Method in brief: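 Fluorescence polarization competition: compounds (titration) displace HiFluor-488-labeled Pin1-1b peptide from Pin1 (0.3 uM final) in pH 7.5 HEPES buffer with DTT, 10 min at room temperature; %Activity normalized to no-enzyme wells, curves fitted.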

[16] = target: Ubiquitin carboxyl-terminal hydrolase 1 (Homo sapiens) (UniProt O94782); experiment: Inhibitors of USP1/UAF1: Pilot qHTS (AID 504865);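 also: rhodamine fluorescence freed from ubiquitin-rhodamine substrate followed over time; potency is read from the fitted curve at half-maximal effect; nearly all actives have a fitted effect of over 35% in size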
Method in brief: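 In 50mM HEPES pH 7.8 containing 0.5mM EDTA, 1mM TCEP, 0.1 mg/ml BSA and 0.01% Tween-20, 1nM USP1/UAF1 is exposed to compound for 15 min, then Ub-Rho (150nM final) is added and fluorescence is read over time.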

[17] = qHTS for Inhibitors of ATXN expression: Validation of Cytotoxic Assay (AID 588349); also: potency is read from the fitted curve at half-maximal effect
Method in brief: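 HEK293 cells were dosed with titrated compounds for 72 hr at 37 degrees C. Viability was read by CellTiter Glo luminescence, with intracellular ATP as the marker of cell survival.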

Measured: Potency
Tags tell the direction and shape of the fitted curve or compound fluorescence and quenching.

Chain of UniProt O15648 (O15648 whole entry, looked up): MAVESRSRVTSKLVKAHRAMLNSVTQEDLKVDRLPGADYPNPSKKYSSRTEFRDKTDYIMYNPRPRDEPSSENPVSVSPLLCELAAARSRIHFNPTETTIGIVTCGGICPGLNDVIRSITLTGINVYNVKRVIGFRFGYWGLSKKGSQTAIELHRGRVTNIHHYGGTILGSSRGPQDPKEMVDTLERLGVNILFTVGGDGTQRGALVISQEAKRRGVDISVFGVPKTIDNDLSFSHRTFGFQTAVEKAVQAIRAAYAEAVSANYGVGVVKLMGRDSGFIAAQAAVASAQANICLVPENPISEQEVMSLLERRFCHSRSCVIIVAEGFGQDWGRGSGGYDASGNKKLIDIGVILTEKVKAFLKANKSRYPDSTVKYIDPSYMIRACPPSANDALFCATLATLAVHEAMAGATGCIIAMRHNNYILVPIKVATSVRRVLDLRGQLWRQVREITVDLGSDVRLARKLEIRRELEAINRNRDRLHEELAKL
Chain of UniProt O94782 (O94782 whole entry, looked up): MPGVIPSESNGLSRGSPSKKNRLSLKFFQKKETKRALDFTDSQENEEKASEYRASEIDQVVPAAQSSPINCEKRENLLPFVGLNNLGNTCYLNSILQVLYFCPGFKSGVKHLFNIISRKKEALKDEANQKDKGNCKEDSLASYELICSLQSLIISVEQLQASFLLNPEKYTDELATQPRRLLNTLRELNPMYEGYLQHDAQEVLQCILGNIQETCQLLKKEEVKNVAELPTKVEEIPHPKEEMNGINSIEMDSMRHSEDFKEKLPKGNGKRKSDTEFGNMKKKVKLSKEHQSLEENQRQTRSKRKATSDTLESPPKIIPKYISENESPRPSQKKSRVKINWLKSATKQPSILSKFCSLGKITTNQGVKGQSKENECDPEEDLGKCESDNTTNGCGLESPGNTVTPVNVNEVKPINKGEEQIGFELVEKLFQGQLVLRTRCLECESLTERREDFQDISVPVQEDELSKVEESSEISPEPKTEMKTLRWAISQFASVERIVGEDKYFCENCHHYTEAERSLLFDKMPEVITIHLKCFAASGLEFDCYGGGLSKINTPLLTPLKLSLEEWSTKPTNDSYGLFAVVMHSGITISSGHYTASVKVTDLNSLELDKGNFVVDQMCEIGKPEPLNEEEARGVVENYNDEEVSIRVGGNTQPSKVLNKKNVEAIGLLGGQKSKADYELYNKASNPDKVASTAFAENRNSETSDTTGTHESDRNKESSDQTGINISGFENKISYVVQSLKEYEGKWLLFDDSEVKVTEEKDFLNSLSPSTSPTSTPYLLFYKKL
Chain of UniProt Q27686 (Q27686 whole entry, looked up): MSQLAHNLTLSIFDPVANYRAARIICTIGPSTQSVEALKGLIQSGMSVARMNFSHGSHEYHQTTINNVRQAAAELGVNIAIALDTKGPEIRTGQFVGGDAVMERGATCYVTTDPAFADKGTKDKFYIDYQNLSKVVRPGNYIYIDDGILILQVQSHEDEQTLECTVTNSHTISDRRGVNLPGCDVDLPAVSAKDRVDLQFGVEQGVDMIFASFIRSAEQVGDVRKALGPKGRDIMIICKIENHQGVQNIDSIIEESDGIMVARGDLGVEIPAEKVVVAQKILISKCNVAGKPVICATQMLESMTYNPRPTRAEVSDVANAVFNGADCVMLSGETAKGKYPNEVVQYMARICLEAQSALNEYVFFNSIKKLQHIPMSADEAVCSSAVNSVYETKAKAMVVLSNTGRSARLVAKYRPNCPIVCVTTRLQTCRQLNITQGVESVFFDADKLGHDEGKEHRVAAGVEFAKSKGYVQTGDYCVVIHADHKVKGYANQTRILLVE
Chain of UniProt P21728 (P21728 whole entry, looked up): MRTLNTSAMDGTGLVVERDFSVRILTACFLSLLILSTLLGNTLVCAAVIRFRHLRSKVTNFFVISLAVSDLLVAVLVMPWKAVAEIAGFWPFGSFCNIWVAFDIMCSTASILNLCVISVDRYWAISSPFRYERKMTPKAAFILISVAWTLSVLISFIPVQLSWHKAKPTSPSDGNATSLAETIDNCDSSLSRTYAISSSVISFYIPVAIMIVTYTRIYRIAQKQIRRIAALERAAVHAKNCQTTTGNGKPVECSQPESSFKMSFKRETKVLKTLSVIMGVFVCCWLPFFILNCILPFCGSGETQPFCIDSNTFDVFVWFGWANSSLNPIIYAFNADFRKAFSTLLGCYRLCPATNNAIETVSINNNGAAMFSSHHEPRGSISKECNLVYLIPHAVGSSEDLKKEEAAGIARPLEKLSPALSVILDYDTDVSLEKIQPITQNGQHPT
Chain of UniProt Q96QE3 (Q96QE3 whole entry, looked up, the tested form may be a part): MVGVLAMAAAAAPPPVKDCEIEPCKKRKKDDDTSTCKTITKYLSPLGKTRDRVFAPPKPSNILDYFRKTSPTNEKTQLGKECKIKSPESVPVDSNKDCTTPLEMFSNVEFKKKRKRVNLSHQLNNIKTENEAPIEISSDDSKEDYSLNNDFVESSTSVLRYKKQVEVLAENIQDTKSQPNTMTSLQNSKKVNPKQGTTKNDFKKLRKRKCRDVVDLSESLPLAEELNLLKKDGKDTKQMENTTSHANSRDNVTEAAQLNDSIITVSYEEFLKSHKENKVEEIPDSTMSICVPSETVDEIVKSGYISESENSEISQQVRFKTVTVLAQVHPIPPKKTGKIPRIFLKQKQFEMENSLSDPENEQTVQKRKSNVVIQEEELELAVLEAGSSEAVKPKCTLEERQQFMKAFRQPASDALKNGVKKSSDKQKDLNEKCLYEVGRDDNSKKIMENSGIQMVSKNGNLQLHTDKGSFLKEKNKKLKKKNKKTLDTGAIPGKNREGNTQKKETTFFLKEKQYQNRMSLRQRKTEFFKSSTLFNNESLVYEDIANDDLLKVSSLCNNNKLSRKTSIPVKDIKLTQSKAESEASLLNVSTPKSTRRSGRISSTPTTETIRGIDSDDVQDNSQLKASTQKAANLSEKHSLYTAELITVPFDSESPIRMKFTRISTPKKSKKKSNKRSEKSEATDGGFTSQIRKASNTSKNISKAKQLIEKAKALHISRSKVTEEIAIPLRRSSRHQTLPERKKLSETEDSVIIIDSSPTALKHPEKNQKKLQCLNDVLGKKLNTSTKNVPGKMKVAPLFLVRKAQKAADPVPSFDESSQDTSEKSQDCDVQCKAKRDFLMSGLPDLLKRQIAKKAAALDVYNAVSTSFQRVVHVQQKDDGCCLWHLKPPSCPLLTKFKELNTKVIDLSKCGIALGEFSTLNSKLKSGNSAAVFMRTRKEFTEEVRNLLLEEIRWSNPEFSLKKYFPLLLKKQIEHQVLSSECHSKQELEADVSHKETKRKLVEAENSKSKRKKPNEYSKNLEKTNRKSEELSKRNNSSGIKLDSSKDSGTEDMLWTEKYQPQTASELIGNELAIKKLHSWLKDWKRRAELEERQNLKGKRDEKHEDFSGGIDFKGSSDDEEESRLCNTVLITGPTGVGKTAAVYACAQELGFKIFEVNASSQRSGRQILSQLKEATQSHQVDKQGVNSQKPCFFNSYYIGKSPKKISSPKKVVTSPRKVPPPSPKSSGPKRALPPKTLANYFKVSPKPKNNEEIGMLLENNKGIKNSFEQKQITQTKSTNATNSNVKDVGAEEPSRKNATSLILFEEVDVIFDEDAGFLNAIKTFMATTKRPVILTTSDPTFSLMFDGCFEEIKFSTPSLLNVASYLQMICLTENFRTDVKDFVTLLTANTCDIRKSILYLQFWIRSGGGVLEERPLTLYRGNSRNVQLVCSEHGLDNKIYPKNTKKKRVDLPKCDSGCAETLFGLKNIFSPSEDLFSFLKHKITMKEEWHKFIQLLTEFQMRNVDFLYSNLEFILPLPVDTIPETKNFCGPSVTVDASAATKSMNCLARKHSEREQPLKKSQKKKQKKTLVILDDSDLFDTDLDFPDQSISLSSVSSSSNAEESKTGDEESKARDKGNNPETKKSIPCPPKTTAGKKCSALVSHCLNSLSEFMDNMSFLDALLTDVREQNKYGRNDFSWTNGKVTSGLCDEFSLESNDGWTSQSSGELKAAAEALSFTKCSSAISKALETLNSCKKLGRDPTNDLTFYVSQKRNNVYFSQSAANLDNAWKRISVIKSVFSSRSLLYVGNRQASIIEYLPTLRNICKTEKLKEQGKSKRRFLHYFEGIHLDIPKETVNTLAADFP
Chain of UniProt Q13526 (Q13526 whole entry, looked up): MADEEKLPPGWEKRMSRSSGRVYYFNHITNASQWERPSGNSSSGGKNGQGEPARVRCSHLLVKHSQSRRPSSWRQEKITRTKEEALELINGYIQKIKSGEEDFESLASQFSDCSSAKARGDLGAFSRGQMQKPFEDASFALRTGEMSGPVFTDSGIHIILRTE
Chain of UniProt P08482 (P08482 whole entry, looked up): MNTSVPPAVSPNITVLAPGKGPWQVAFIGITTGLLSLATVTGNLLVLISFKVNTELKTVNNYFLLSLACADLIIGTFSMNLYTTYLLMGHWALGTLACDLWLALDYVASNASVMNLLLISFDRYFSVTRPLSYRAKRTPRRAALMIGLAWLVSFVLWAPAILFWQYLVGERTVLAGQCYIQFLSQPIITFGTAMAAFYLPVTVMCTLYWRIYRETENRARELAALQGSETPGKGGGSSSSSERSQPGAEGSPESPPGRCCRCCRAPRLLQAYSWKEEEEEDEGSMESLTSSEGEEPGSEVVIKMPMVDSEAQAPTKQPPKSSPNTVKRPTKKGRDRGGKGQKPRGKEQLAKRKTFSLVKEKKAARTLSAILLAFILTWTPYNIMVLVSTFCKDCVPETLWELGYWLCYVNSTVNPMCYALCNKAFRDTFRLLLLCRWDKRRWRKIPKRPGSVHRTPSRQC
Chain of UniProt P02791 (P02791 whole entry, looked up): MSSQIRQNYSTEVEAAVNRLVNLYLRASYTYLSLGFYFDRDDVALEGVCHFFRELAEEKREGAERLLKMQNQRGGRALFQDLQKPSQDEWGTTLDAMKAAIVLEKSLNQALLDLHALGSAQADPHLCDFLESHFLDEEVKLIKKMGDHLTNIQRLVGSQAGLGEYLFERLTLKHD

N#C/C(=C\c1ccc(O)c(O)c1)C(=O)NCCCNC(=O)/C(C#N)=C/c1ccc(O)c(O)c1
active: [5] 3.16 µM | [9] 21.2 µM | [15] 0.849 µM
inconclusive: [1] 5.62 µM [inhibitor, partial curve, poor fit] [stimulated with 10 pM TNF alpha] | [2] 17.8 µM [inhibitor, partial curve, poor fit] | [3] 0.631 µM [activator, full curve] | [6] 84.9 µM [cytotoxic, single point] | [7] 35.5 µM [inhibitor, partial curve] | [8] 39.8 µM [inhibitor, partial curve, poor fit] | [10] 3.01 µM [falling, full curve, poor fit] | [11] 3.36 µM [inhibitor, partial curve] | [12] 0.184 µM [activator, single point] | [13] 16.4 µM [inhibitor, partial curve] | [14] 29.1 µM [activator, single point] | [16] 63.1 µM [inhibitor, partial curve, poor fit] | [17] 17.8 µM [cytotoxic, partial curve]
inactive: [4]
